Laboratory results taken from article PMC5700166.
The entries are a selection whose mix differs from that of the whole data set. The list includes weakly bound sequences.

Biological target: T1, GST-Nv-NF-kB (Cys allele) (UniProt E5G601)
T1 sequence: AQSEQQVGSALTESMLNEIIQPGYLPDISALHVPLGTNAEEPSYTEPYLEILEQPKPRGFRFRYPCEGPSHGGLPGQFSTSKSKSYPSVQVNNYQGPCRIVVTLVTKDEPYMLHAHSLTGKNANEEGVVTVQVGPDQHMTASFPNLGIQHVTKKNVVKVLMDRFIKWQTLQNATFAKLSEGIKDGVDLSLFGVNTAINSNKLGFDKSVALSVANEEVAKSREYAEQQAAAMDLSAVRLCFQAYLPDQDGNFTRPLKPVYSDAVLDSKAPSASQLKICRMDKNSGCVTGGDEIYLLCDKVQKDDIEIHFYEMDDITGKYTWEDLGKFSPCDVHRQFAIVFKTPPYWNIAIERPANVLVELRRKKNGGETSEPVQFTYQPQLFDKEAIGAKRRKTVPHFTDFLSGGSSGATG
Assay: protein-binding microarray (PBM)
Conditions: PBM: ~300 nM protein, 6 mM HEPES pH 7.8, 80 mM KCl, 0.5 mM EDTA, 0.5 mM EGTA, 6% glycerol, 35 ng/ul poly-dIdC, 1% milk, 1 h, room temperature; high values mean tight binding; double strand, one strand shown

Sequence | binding signal
CCGATTAACATCACGATAGCTATTGATGTTAATCGGGTCTTGATTCGCTTGACGCTGCTG | -0.0464 z-score
CCGATTAACATCACGTACTACAATGATGTTAATCGGGTCTTGATTCGCTTGACGCTGCTG | -0.21 z-score
CCGATTAACATCAGATTCTCGTGTGATGTTAATCGGGTCTTGATTCGCTTGACGCTGCTG | -0.561 z-score
CCGATTAACATCAGAGCGGGTTTTGATGTTAATCGGGTCTTGATTCGCTTGACGCTGCTG | 0.649 z-score
CCGATTAACATCAAGTTGTACAATGATGTTAATCGGGTCTTGATTCGCTTGACGCTGCTG | -0.231 z-score
CCGATTAACATCAGTTGCTCTCATGATGTTAATCGGGTCTTGATTCGCTTGACGCTGCTG | 0.0371 z-score
CCGATTAACATCAGAAAATTTCATGATGTTAATCGGGTCTTGATTCGCTTGACGCTGCTG | -0.239 z-score
CCGATTAACATCATTACGCCACGTGATGTTAATCGGGTCTTGATTCGCTTGACGCTGCTG | 0.149 z-score
CCGATTAACATCATACTCCTTGATGATGTTAATCGGGTCTTGATTCGCTTGACGCTGCTG | -0.589 z-score
CCGATTAACATCATCTCGACCATTGATGTTAATCGGGTCTTGATTCGCTTGACGCTGCTG | -1.27 z-score
CCGATTAACATCAAAATTCCTACTGATGTTAATCGGGTCTTGATTCGCTTGACGCTGCTG | 0.16 z-score
CCGATTAACATCAGCGCAGCGGCTGATGTTAATCGGGTCTTGATTCGCTTGACGCTGCTG | 0.0571 z-score
CCGATTAACATCATACTAGTTCCTGATGTTAATCGGGTCTTGATTCGCTTGACGCTGCTG | -0.142 z-score
CCGATTAACATCATTAAGAAAGCTGATGTTAATCGGGTCTTGATTCGCTTGACGCTGCTG | -0.151 z-score
CCGATTAACATCAGGGTTGCAACTGATGTTAATCGGGTCTTGATTCGCTTGACGCTGCTG | -0.268 z-score
CCGATTAACATCACCATCCAACTTGATGTTAATCGGGTCTTGATTCGCTTGACGCTGCTG | 0.231 z-score
CCGATTAACATCAAGCGGTATTATGATGTTAATCGGGTCTTGATTCGCTTGACGCTGCTG | -0.154 z-score
CCGATTAACATCACGGGTCGGATTGATGTTAATCGGGTCTTGATTCGCTTGACGCTGCTG | 0.479 z-score
CCGATTAACATCACCTGAACTATTGATGTTAATCGGGTCTTGATTCGCTTGACGCTGCTG | 0.485 z-score
CCGATTAACATCAATTGACGATTTGATGTTAATCGGGTCTTGATTCGCTTGACGCTGCTG | -0.365 z-score

Sequence | binding signal
CCGATTAACATCACGGATTCTCCTGATGTTAATCGGGTCTTGATTCGCTTGACGCTGCTG | -0.15 z-score
CCGATTAACATCAGCGAATTTCCTGATGTTAATCGGGTCTTGATTCGCTTGACGCTGCTG | -0.48 z-score
CCGATTAACATCAAATAGGCTCATGATGTTAATCGGGTCTTGATTCGCTTGACGCTGCTG | -0.661 z-score
CCGATTAACATCACATACCTACCTGATGTTAATCGGGTCTTGATTCGCTTGACGCTGCTG | 0.306 z-score
CCGATTAACATCAATTCATCAGTTGATGTTAATCGGGTCTTGATTCGCTTGACGCTGCTG | -0.333 z-score
CCGATTAACATCAGCAACTGGCCTGATGTTAATCGGGTCTTGATTCGCTTGACGCTGCTG | -0.681 z-score
CCGATTAACATCATCGCGCCTTCTGATGTTAATCGGGTCTTGATTCGCTTGACGCTGCTG | -0.974 z-score
CCGATTAACATCAAGACCACTGTTGATGTTAATCGGGTCTTGATTCGCTTGACGCTGCTG | 0.297 z-score
CCGATTAACATCAAGGCAAAGGCTGATGTTAATCGGGTCTTGATTCGCTTGACGCTGCTG | -0.265 z-score
CCGATTAACATCAGCCATGGTGATGATGTTAATCGGGTCTTGATTCGCTTGACGCTGCTG | -0.574 z-score
CCGATTAACATCAGCTAAGCATGTGATGTTAATCGGGTCTTGATTCGCTTGACGCTGCTG | -0.418 z-score
CCGATTAACATCAAAAAATCCCCTGATGTTAATCGGGTCTTGATTCGCTTGACGCTGCTG | 11.9 z-score
CCGATTAACATCACGTAACAATATGATGTTAATCGGGTCTTGATTCGCTTGACGCTGCTG | -0.0158 z-score
CCGATTAACATCACAGAAATTCCTGATGTTAATCGGGTCTTGATTCGCTTGACGCTGCTG | 0.157 z-score
CCGATTAACATCACGCGATCATATGATGTTAATCGGGTCTTGATTCGCTTGACGCTGCTG | -0.66 z-score
CCGATTAACATCACGGGCATTCCTGATGTTAATCGGGTCTTGATTCGCTTGACGCTGCTG | 0.928 z-score
CCGATTAACATCATGCAAGAACTTGATGTTAATCGGGTCTTGATTCGCTTGACGCTGCTG | 0.00555 z-score
CCGATTAACATCAGCTCTGTACATGATGTTAATCGGGTCTTGATTCGCTTGACGCTGCTG | -0.0137 z-score
CCGATTAACATCAGTTCACGCCGTGATGTTAATCGGGTCTTGATTCGCTTGACGCTGCTG | -0.288 z-score

Biological target: T2, GST-Co-NF-kB (UniProt F1ARL5)
T2 sequence: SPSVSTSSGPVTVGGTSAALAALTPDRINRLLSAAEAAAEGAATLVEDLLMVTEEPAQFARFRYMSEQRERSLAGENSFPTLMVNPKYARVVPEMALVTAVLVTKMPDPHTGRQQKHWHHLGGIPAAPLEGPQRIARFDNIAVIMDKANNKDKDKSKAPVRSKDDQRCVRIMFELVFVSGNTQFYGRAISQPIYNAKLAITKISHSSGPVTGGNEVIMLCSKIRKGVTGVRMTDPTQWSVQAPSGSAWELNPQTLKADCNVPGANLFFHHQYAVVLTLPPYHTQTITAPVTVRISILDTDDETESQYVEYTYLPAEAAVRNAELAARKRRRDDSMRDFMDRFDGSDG
Assay: protein-binding microarray (PBM)
Conditions: PBM: ~300 nM protein, 6 mM HEPES pH 7.8, 80 mM KCl, 0.5 mM EDTA, 0.5 mM EGTA, 6% glycerol, 35 ng/ul poly-dIdC, 1% milk, 1 h, room temperature; Ap Aiptasia and Nv Nematostella (sea anemones) / Co Capsaspora / Aq Amphimedon (sponge) / Dm Drosophila / Hu human; RHD is the Rel homology domain; high values mean tight binding; most listed sequences are background and not binding sites; double strand, one strand shown

Sequence | binding signal
CCGATTAACATCACGATAGCTATTGATGTTAATCGGGTCTTGATTCGCTTGACGCTGCTG | -0.217 z-score
CCGATTAACATCACGTACTACAATGATGTTAATCGGGTCTTGATTCGCTTGACGCTGCTG | 0.507 z-score
CCGATTAACATCAGATTCTCGTGTGATGTTAATCGGGTCTTGATTCGCTTGACGCTGCTG | 0.299 z-score
CCGATTAACATCAGAGCGGGTTTTGATGTTAATCGGGTCTTGATTCGCTTGACGCTGCTG | -0.24 z-score
CCGATTAACATCAAGTTGTACAATGATGTTAATCGGGTCTTGATTCGCTTGACGCTGCTG | -0.652 z-score
CCGATTAACATCAGTTGCTCTCATGATGTTAATCGGGTCTTGATTCGCTTGACGCTGCTG | -0.021 z-score
CCGATTAACATCAGAAAATTTCATGATGTTAATCGGGTCTTGATTCGCTTGACGCTGCTG | -0.278 z-score
CCGATTAACATCATTACGCCACGTGATGTTAATCGGGTCTTGATTCGCTTGACGCTGCTG | 0.444 z-score
CCGATTAACATCATACTCCTTGATGATGTTAATCGGGTCTTGATTCGCTTGACGCTGCTG | -0.449 z-score
CCGATTAACATCATCTCGACCATTGATGTTAATCGGGTCTTGATTCGCTTGACGCTGCTG | 0.0129 z-score
CCGATTAACATCAAAATTCCTACTGATGTTAATCGGGTCTTGATTCGCTTGACGCTGCTG | 0.866 z-score
CCGATTAACATCAGCGCAGCGGCTGATGTTAATCGGGTCTTGATTCGCTTGACGCTGCTG | -1.56 z-score
CCGATTAACATCATACTAGTTCCTGATGTTAATCGGGTCTTGATTCGCTTGACGCTGCTG | 0.325 z-score
CCGATTAACATCATTAAGAAAGCTGATGTTAATCGGGTCTTGATTCGCTTGACGCTGCTG | 0.366 z-score
CCGATTAACATCAGGGTTGCAACTGATGTTAATCGGGTCTTGATTCGCTTGACGCTGCTG | -0.578 z-score
CCGATTAACATCACCATCCAACTTGATGTTAATCGGGTCTTGATTCGCTTGACGCTGCTG | 0.263 z-score
CCGATTAACATCAAGCGGTATTATGATGTTAATCGGGTCTTGATTCGCTTGACGCTGCTG | -0.448 z-score
CCGATTAACATCACGGGTCGGATTGATGTTAATCGGGTCTTGATTCGCTTGACGCTGCTG | 0.65 z-score
CCGATTAACATCACCTGAACTATTGATGTTAATCGGGTCTTGATTCGCTTGACGCTGCTG | 0.612 z-score
CCGATTAACATCAATTGACGATTTGATGTTAATCGGGTCTTGATTCGCTTGACGCTGCTG | -0.718 z-score

Sequence | binding signal
CCGATTAACATCACGGATTCTCCTGATGTTAATCGGGTCTTGATTCGCTTGACGCTGCTG | -0.745 z-score
CCGATTAACATCAGCGAATTTCCTGATGTTAATCGGGTCTTGATTCGCTTGACGCTGCTG | -0.437 z-score
CCGATTAACATCAAATAGGCTCATGATGTTAATCGGGTCTTGATTCGCTTGACGCTGCTG | -0.437 z-score
CCGATTAACATCACATACCTACCTGATGTTAATCGGGTCTTGATTCGCTTGACGCTGCTG | 0.568 z-score
CCGATTAACATCAATTCATCAGTTGATGTTAATCGGGTCTTGATTCGCTTGACGCTGCTG | -0.0609 z-score
CCGATTAACATCAGCAACTGGCCTGATGTTAATCGGGTCTTGATTCGCTTGACGCTGCTG | -0.552 z-score
CCGATTAACATCATCGCGCCTTCTGATGTTAATCGGGTCTTGATTCGCTTGACGCTGCTG | -0.835 z-score
CCGATTAACATCAAGACCACTGTTGATGTTAATCGGGTCTTGATTCGCTTGACGCTGCTG | -0.36 z-score
CCGATTAACATCAAGGCAAAGGCTGATGTTAATCGGGTCTTGATTCGCTTGACGCTGCTG | -0.514 z-score
CCGATTAACATCAGCCATGGTGATGATGTTAATCGGGTCTTGATTCGCTTGACGCTGCTG | 0.0829 z-score
CCGATTAACATCAGCTAAGCATGTGATGTTAATCGGGTCTTGATTCGCTTGACGCTGCTG | -0.732 z-score
CCGATTAACATCAAAAAATCCCCTGATGTTAATCGGGTCTTGATTCGCTTGACGCTGCTG | 6.83 z-score
CCGATTAACATCACGTAACAATATGATGTTAATCGGGTCTTGATTCGCTTGACGCTGCTG | -0.0709 z-score
CCGATTAACATCACAGAAATTCCTGATGTTAATCGGGTCTTGATTCGCTTGACGCTGCTG | 0.193 z-score
CCGATTAACATCACGCGATCATATGATGTTAATCGGGTCTTGATTCGCTTGACGCTGCTG | -0.807 z-score
CCGATTAACATCACGGGCATTCCTGATGTTAATCGGGTCTTGATTCGCTTGACGCTGCTG | 0.157 z-score
CCGATTAACATCATGCAAGAACTTGATGTTAATCGGGTCTTGATTCGCTTGACGCTGCTG | 0.0534 z-score
CCGATTAACATCAGCTCTGTACATGATGTTAATCGGGTCTTGATTCGCTTGACGCTGCTG | -0.0141 z-score
CCGATTAACATCAGTTCACGCCGTGATGTTAATCGGGTCTTGATTCGCTTGACGCTGCTG | 0.228 z-score
